# Reference: the supplement of paper PMC11417369
# This is one part of the list.
# System: PfHDP1 homeodomain (GST-tagged)
# Assay: gcPBM binding intensity (ln(normalized median fluorescence intensity)); higher = stronger DNA binding
# Method in brief: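 Plasmodium falciparum DNA-binding domains carrying a GST tag were expressed in E. coli and applied for 1 h, at about 25 μg on average, to an Agilent 4 × 180k array. The array held primer-extended double-stranded 36-bp intergenic genomic probes together with negative controls, and binding took place in 1× PBS with 1% milk, 0.2 mg/ml BSA, 0.5% salmon testes DNA and 0.03% Triton X-100. An Alexa488 anti-GST antibody detected bound protein, and the array was scanned at 488 nm. Binding intensity is taken as the highest Masliner-normalised natural-log median intensity across replicate spots of either probe orientation.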
row,Sequence,gcPBM binding intensity (ln)
1,TATATATATATATGGGGTACAAATGGTCAGTATTAT [XGTACX_site1223],9.16
2,ATATATATATATATAACACACGTGTATATATATGTA [CACACA_site3644],9.08
3,TATTAATCATATAAATGTACGTATATATATTTTTCT [XGTACX_site1421],6.45
4,AAAAAAAAAAAATATATATATATATATATATATATA [CACACA_negctrl_site1606],9.51
5,TATAATATATTATAACGTACAAATATATATATAAAA [XGTACX_site6581],6.94
6,CAATCATAGAAAAACAGTACGTGTAGCAAACATCCT [XGTACX_site4889],6.85
7,ATTTATATTACAAAAAGTACACACATAAATAAATAC [XGTACX_site1827],6.99
8,TATATATATTATATATGTACATATATTTTTTTTTTT [XGTACX_site127],7.09
9,TTTCTATATCTATTTAATTAACTTTTTATACTGATT [GTGCAC_negctrl_site415],6.57
10,GCATCTCATTTGTGATGTACTATATTATCCGTTTTT [XGTACX_site7576],6.1
11,ATCAACAAAACATACACACACATATATATATATATA [CACACA_site2989],9.39
12,CATATCATTGATTATAGTACACATACCATTTTTTAT [XGTACX_site6572],6.69
13,CACATAAAAAAATAAACACACATATGTATTTATATA [CACACA_site5718],6.38
14,CAACACTTAGATTTTAAGTTCACTGGTTAATATATA [CACACA_negctrl_site707],5.83
15,TTAAAAAAATATAGAGCATGCTAAAAATAAAAAAAT [TGCATGCA_site794],7.02
16,AATAAAAATAATATAGTGCATAATATAAGGAAAAAA,9.58
17,GTTATACTCATCAACACACACATACAACGTGGTGTA [CACACA_site4789],6.8
18,AGGTCTATATAATAAGTGCATTTTTTTTTTTTTTTT [GTGCAC_site9664],8.64
19,TTTTAAAAAAAAAAAAAAAAAAAAAAAAAAAAAAAA [CACACA_negctrl_site1343],6.02

row,Sequence,gcPBM binding intensity (ln)
1,TGTTTTTTTATTTTCACACATAATCCAATTATACAT [CACACA_site6070],6.96
2,TTTTAAAATTATTAGGTGCATATTTATTCTATATTT,9.12
3,TGCAATGGAGCATAAAGTACATATAATTGTATTTTT [XGTACX_site7349],8.1
4,TAGAATAATCCTTACACACACACACCCACGAATAAA [CACACA_site483],7.11
5,AATACAGAGGAAAATACACACGTATATATATAAATA [CACACA_site9125],6.51
6,CTATGCCCCATATAAACACACAAATAAAAAGAATAT [CACACA_site2681],7.21
7,TTTTTTTCTTTTGGGAGTACCAACATTTTCACATAT [XGTACX_site1371],6.58
8,AAAAAAAAAAGACACACACACACAAATACATACACA [CACACA_site6472],6.71
9,TGAATAAAGATATATACACACATATAGGTATATATC [CACACA_site6870],6.37
10,TGCTTATATTTTTATACACACAAGATACTTTTTGTT [CACACA_site1535],6.88
11,ATCTAAATAAAGTTAACACACACATAATATATATAT [CACACA_site8055],8.32
12,AGTAATATAATATAAGCACACGTGTATTTATTTAGG [CACACA_site7921],6.65
13,AAAAAAAAAAAAAAATACAAGCACATTTATATAAGC [GTGCAC_negctrl_site695],6.42
14,AAATACATTAAAATGACATGCAGATATATATCAAAA [TGCATGCA_site477],6.73
15,TATATATCAATATTTACACACATGCGCCCACATAAA [CACACA_site7185],6.98
16,AAAAAAAAAAAATATGTACACACATATATAATACAT [CACACA_site8473],6.46
17,TATATGTTTGAATATACACACAACATATTTATATAT [CACACA_site7832],6.51
18,TTTTTTGTTAAAAGAGTGCAAATTTTTAAAGATTTG [GTGCAC_site9502],8.34
19,TTTTTTGTACCAAAAAAAAAAAAAAGAAAAAAAAAC [CACACA_negctrl_site1416],6.21

row,Sequence,gcPBM binding intensity (ln)
1,TATTTTATTATTATTATTTCTTTATAGTGTATTCTA [CACACA_negctrl_site517],6.34
2,TATTTTATTATTATTATTAGTATGATTTCTTTATAG [CACACA_negctrl_site550],6.4
3,GGATAGGCATAACATAGTACGTACAAATATATATAT [XGTACX_site454],8.37
4,AATATATAGCTAAAAACACACAAATATATACACATA [CACACA_site9203],6.97
5,TTTTCGTAACTGATTCAACACACAAAAGGGGGAAAA [CACACA_site8517],6.71
6,TTATAAAAATTTAGTTGTACATGTCAAATTATCAAT [XGTACX_site7229],6.41
7,TAAGACAATAAATGCTGTACAATTGAATATCTTGGA [XGTACX_site636],6.27
8,AAAAGCACAAAAAATACACACACAAAAAATAAAAAA [CACACA_site8545],6.5
9,TATATCCCTTAGAATACACACCCATATGAGTGTGAA [CACACA_site8965],6.36
10,TAATGATAAATACATACACACAAAAAATGATATATA [CACACA_site7258],6.48
11,ACAAAAATTAAATAAAGTACATTTTTAAAATACGTA [XGTACX_site3880],6.35
12,AATGTAAAATCTTCATATACATTTAAGTCTGTATTT [TGCATGCA_negctrl_site183],5.83
13,ATAAAAAAAAAAACAGTAAAATTATAATTATAATTA [TGCATGCA_negctrl_site356],6.45
14,TTAACAAATAAACACACACACACACCCAAAAAAAAA [CACACA_site8068],6.67
15,ATATGAAAAAGAACTTGTACTAAAGTGGCATATTAT [XGTACX_site8520],6.57
16,CATATATATTTTATTTGTACGTATAAAAAAACAAAA [XGTACX_site4253],6.62
17,TAAATACTTGTATATAGTACAAGTTGTTTTTTTTAA [XGTACX_site5643],5.95
18,ATTATTTGAAACTATTGTACATTTAAAAACATTTTT [XGTACX_site4896],6.5
